# Assay results from the supplement of paper PMC11417369.
# ± gives the standard deviation of the averaged measurements. The list shows a part of the results.
# System: PfAP2-LT AP2 domain (GST-tagged)
# Experiment: gcPBM binding intensity (ln(normalized median fluorescence intensity)); higher = stronger DNA binding
# In short: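 Binding intensity is the highest Masliner-normalised natural-log median intensity over replicate spots in either probe orientation. To obtain it, GST-tagged P. falciparum DNA-binding domains made in E. coli were incubated for 1 h on an Agilent 4 × 180k array of primer-extended double-stranded 36-bp intergenic genomic probes plus negative controls. Detection used Alexa488 anti-GST antibody with scanning at 488 nm.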
row,Sequence,gcPBM binding intensity (ln)
1,ATATATCAAATAGACAAACACACAAAGGAAGAGTGA [CACACA_site3922],9.24 ± 0.47
2,CATATACACGAACACACACACACACGCACAAAAAAA [CACACA_site6376],10.1 ± 0.24
3,CACAGACACGGACACACACACACACCCAGACACATA [CACACA_site4357],10.1 ± 0.43
4,ATATATATATATATATGTACATATGTCAACTGTCTA [XGTACX_site8636],10.1 ± 0.43
5,CATACATACAAACACACACACATATATATACATACA [CACACA_site852],10.1 ± 0.38
6,TTTCTTTTTTCACGTGCATGCCATTTAAGTATTAAT [TGCATGCA_site651],9.19 ± 0.47
7,GAATTATAAGAATAAACACACAAGCTTAAAAAAAAA [CACACA_site1204],8.79 ± 0.51
8,AGAATTCAACAATGTTGTACATACACACACACAAAA [XGTACX_site5035],9.56 ± 0.4
9,TTTGTTTGGTTTTGGTGTACTTTTTTTTTTTTTTCT [XGTACX_site2050],9.03 ± 0.45
10,ACATATGTATAATATGCACACGTCATTTTCCCCTTA [CACACA_site5194],9.29 ± 0.38
11,ACTAAACTTATATGTACACACATATAACATTAATTT [CACACA_site2258],9.09 ± 0.37
12,TTATTATTTGGTTATAGTACATAATATAATATATAT [XGTACX_site6911],8.57 ± 0.3
13,TATATATATATGTATGCATGTTGTTTTTTATTTAAT [TGCATGCA_site343],9.13 ± 0.38
14,CTATATTTCGTTGGACGTACAAATGTGATAATTAGG [XGTACX_site3232],8.66 ± 0.39
15,CTAATTGTGTATACCTGTACATATATATATATATAT [XGTACX_site416],9.36 ± 0.028
16,AATACAAAAAAAGGTACACACATAATATATTTATTA [CACACA_site2628],9.13 ± 0.45
17,TTAACTTTTTTATATGCACACATAAACAAGGATATA [CACACA_site8932],8.79 ± 0.32
18,TGTTATTCTACATATACACACAAATAACAATTTAAA [CACACA_site1824],8.66 ± 0.36
19,AAAAAAAAAAAGAACACACACAGTGCACATTCGGTG [CACACA_site788],9.15 ± 0.38
20,TTTCCCTCAAATAAAGTGCATTATGATTTTAATTTA,8.44 ± 0.39
21,AAATTATATATGATGTGTACATAAATATATACACAT [XGTACX_site8761],8.88 ± 0.35
22,ATGTATTTATTTTAACGTACAAGATATTATTATTAT [XGTACX_site4609],8.7 ± 0.38
23,AAATTATAATATAATACACACATAAAAAAAAAAAAA [CACACA_site7],8.93 ± 0.47

row,Sequence,gcPBM binding intensity (ln)
1,ATATGGCATATTTGTATTATACATACATATGTATCT [TGCATGCA_negctrl_site562],9.21 ± 0.54
2,TATATTTAGAGAGAGACACACAAAGGGACTTACACA [CACACA_site2545],8.96 ± 0.5
3,TTATTATTCAAGAGGAGTACATTATGTGTATAATAT [XGTACX_site4995],8.71 ± 0.36
4,TGTGTATATCGATAAAGTACATTTGAAAAGTGACTT [XGTACX_site6957],8.84 ± 0.32
5,GTAATATGTATCCATACACACATACAGTTTATTTGC [CACACA_site6540],9.21 ± 0.4
6,TCCACTTAACTCAATTGTACAAAAATAAAAATTAAA [XGTACX_site855],8.34 ± 0.51
7,TTTTATGCGCAATAAGTGCATTTAAAATATATATAT,8.54 ± 0.38
8,ATAATATATATATATATATTATCAAATATATATATA [GTGCAC_negctrl_site346],8.64 ± 0.3
9,ATACGAAGAAATGTTCATTTATTTCGAACATTTAAT [CACACA_negctrl_site1481],8.56 ± 0.41
10,TTTTTCATAAAACACACACACAAAAATAATGTGGAA [CACACA_site3687],9.22 ± 0.36
11,AATATAATATAATATAGTACGTAAAAATATTATACA [XGTACX_site2170],9.01 ± 0.46
12,AAAAAAAACGGACACACACACATTCAATATAAAACA [CACACA_site4189],9.99 ± 0.3
13,GTATTAATATATAATTGTACTTTTTTTTTTTTTTTT [XGTACX_site4369],8.56 ± 0.55
14,ATCACCAAATGGGCTATACAACAATGAGAAATGGTA [CACACA_negctrl_site48],8.88 ± 0.49
15,TTTTTATATTTTACATGTACATAAATATATTATATA [XGTACX_site958],8.75 ± 0.47
16,AATAATGAATTGAAATGTACATATTTTTATTAATAC [XGTACX_site8899],8.64 ± 0.48
17,ATATAAAAATATAATACACACATAAAATATATTATA [CACACA_site969],8.98 ± 0.39
18,TATATAAGGAAATATTGTACTTTTATATTTATATTA [XGTACX_site3814],8.4 ± 0.41
19,TTTCTTTTTATATTCACACATAAATATATATATATA [CACACA_site6053],8.71 ± 0.45
20,AAAAAAAAAAAACACACACACACATACCCATACATA [CACACA_site5575],9.98 ± 0.22
21,ATATATTTGTATAATAGTACGTACAGGCAAAATATA [XGTACX_site7396],8.99 ± 0.43
22,TACATTTAAAAAAAAACACACATATATATATATATA [CACACA_site2535],9.75 ± 0.18
23,ATATATAAATAATGTTGTACGTATTTCAAAAGTATG [XGTACX_site3363],8.72 ± 0.42

row,Sequence,gcPBM binding intensity (ln)
1,TGTATGCTTACATAATGTACGGAAAAATAAAGGCAT [XGTACX_site6923],8.98 ± 0.44
2,ATAATAATAATAAAAAGTACAAATTATTATATATAT [XGTACX_site5160],8.85 ± 0.45
3,TGCTCTCTCTTGTTGTGTACATAATACAATATATAT [XGTACX_site7427],9.21 ± 0.37
4,ATAATAAGAACTCAGTGTACTATCCTTTGAATTAAC [XGTACX_site8117],8.69 ± 0.5
5,AACGTCTTTTTTTTTTTTTTTCTTTTTTTTTTTATT [CACACA_negctrl_site303],8.81 ± 0.48
6,TAATTATTTTCGGTACGTACTAATGTATATATAATT [XGTACX_site3895],8.71 ± 0.42
7,TAATAATTTTTTTTTTTTTTTTACGAAAATATGATT [GTGCAC_negctrl_site323],8.19 ± 0.52
8,AATTTTTTTTTTTTGTTGCACTTTTAGAGTTTTAAT [GTGCAC_site9519],8.68 ± 0.46
9,CCTTTAAGCAAAAACACACACACATATTTATTTATA [CACACA_site6294],9.41 ± 0.3
10,TAATAAATAGGACACACACACATATTTATATATCAT [CACACA_site6771],9.76 ± 0.2
11,TATAAAAGTGGACACACACACATATATATATATATA [CACACA_site4673],9.925 ± 0.035
12,ACACATCAAATATAAAAAAAAAATAACTATAAATAA [CACACA_negctrl_site587],8.76 ± 0.53
13,TTGCAAAATTGTTTTATCACAAATATATACTTAATA [CACACA_negctrl_site403],8.38 ± 0.37
14,TAATTCTTGTAAAATGTGCGCAGTAGATATAGTTTT,9.04 ± 0.25
15,AGATATAAGAAAAGCACACACACACTAGAAAAAAAA [CACACA_site5559],9.92 ± 0.33
16,ATAAAATTATATACGTGTACATATATATATTTATGT [XGTACX_site4653],8.9 ± 0.43
17,ATATTTATTCAATCCAGTACATATTATATATTGTAT [XGTACX_site184],8.86 ± 0.41
18,ATAAAATATCAATACCGTACACAAGCAGGTAAAATA [XGTACX_site3719],9.11 ± 0.35
19,CTTTTTTGTAATAACACACACACAAACAGAAAAAAT [CACACA_site2075],9.48 ± 0.23
20,ATTAATATTTAGACTTGTACATATATAATATATGTC [XGTACX_site3766],8.88 ± 0.41
21,TTTCTTTTTTAAATTAAAATTTTTTTTTTTTTCGGT [TGCATGCA_negctrl_site52],8.16 ± 0.58
22,TTATTTCAAAGTTGTTGTACAAAAATATATTTATAA [XGTACX_site5226],8.49 ± 0.53
23,AATTAAAAAGTTTTTAATGTTTTTAATTTTTTCCAC [XGTACX_negctrl_site423],8.35 ± 0.52

row,Sequence,gcPBM binding intensity (ln)
1,AAAAAAATAATGTACACACACATATATGTTTATATA [CACACA_site6234],9.18 ± 0.38
2,TATATAAATTATGTGAGTACATAATTTAGAAGGAAC [XGTACX_site2807],8.89 ± 0.57
3,AAAGGTGTATTTAATACACACGTGTCATTAAAATTG [CACACA_site4508],8.95 ± 0.29
4,TTAAAAAACTATAATACACACCAAAAATATGCACAT [CACACA_site7079],9.02 ± 0.33
5,AATATAAATATAAATTGTACTTAAAAATTTCACGCA [XGTACX_site5234],8.62 ± 0.49
6,TTTCGTTGTGTATTTTGTACATATTTTTAATTATAT [XGTACX_site6687],9.02 ± 0.47
7,TCCTTTTGAACCCTTTTTCTCACAAGACCTTTATAT [TGCATGCA_negctrl_site413],8.59 ± 0.56
8,TTTTTTTTTTATTCTTCACACATTTCCAATAAAAAA [CACACA_site5601],8.46 ± 0.35
9,GTTATTATATATATGTGTACTTAAAAATTTTATGTC [XGTACX_site6084],8.79 ± 0.54
10,TATAACAAAAAAAAATAAAAAATAAAACTATATATA [CACACA_negctrl_site504],8.5 ± 0.59
11,AATAAAAAAAAAATAAATTTAATAATAATAATAAAA [CACACA_negctrl_site569],8.34 ± 0.64
12,TGTATATATATTTATGCATGCTGTGTGTATTCTTTT [TGCATGCA_site74],9.46 ± 0.34
13,TTTATATATTTTAGGAGTACATTAAATTATACCTTA [XGTACX_site5600],8.3 ± 0.51
14,AAAAAAAAAAAAAAAACACACAGAAATATATATATA [CACACA_site4611],9.14 ± 0.33
15,AAAGAAGGGAAACACACACACACACCCACAAAAAAA [CACACA_site3766],10.18 ± 0.099
16,TACATACATACATACACACACATATATATATATATA [CACACA_site1944],9.8 ± 0.18
17,ATTTTTTCATATTCTACACACGTGAACAAATGAGTC [CACACA_site5635],9.06 ± 0.41
18,TATCATATTTTTATATGTACATAACATAAAAAAAAA [XGTACX_site2152],8.31 ± 0.45
19,AACAGACAAAGACACACACACATACATACATACATA [CACACA_site6351],10.1 ± 0.35
20,TGATTTGTGCCGATTTGTACACATTTATATATATAT [XGTACX_site2154],9.13 ± 0.35
